Results reported in the supplement of paper PMC4166925.
± gives the standard deviation of the averaged measurements. The full ranking holds about 33,000 sequences; the median of “E-score (dimensionless, -0.5 to 0.5)” is about -0.049, and the highest 2% start at about 0.37. The list shows a part of the results.

System: T1, PmTbr T-box DNA-binding domain (GST fusion)
T1 sequence: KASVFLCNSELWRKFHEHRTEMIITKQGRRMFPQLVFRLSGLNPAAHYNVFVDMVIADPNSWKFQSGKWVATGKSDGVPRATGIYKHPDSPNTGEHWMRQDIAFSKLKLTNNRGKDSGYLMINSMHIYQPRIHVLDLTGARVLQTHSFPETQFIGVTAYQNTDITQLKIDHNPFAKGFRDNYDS
Test: PBM E-score of 8-mer (E-score (dimensionless, -0.5 to 0.5)); Tbr is Tbrain of the sea star Patiria miniata (Pm) or the sea urchin Strongylocentrotus purpuratus (Sp); higher = stronger binding preference; most listed sequences are background and not binding sites
Settings: the construct has about 5 more residues each side
Description: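 Universal protein-binding microarray (Agilent AMADID 016060, 60-bp probes with a 35-bp variable region) incubated with 200 nM GST-fused Patiria miniata Tbr T-box DNA-binding domain (residues 272-466) in PBS pH 7.5. Scored for every ungapped 8-mer (given with its reverse complement) by the Universal PBM Analysis Suite as E-score (modified Wilcoxon-Mann-Whitney enrichment, range -0.5 to 0.5; >0.45 counts as bound) and Z-score of median probe intensity. Two replicate arrays (datasets 1 and 2).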
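Also: 200 nM protein in PBS on universal arrays averaged over duplicate arrays.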

Sequence	PBM E-score of 8-mer
CACGGTCA	-0.128 ± 0.15
AGTATGTC	0.0609 ± 0.02
GCCCAAAC	-0.326 ± 0.053
GAAATATC	0.116 ± 0.062
AAAGAGAA	-0.164 ± 0.0075
CCCTTTCC	-0.23 ± 0.041
ACCAACAA	-0.0452 ± 0.0025
AGGTAACT	-0.202 ± 0.042
CCTCAAGA	-0.0898 ± 0.013
ATGGCCAG	-0.288 ± 0.012
AGCGAAAA	0.0819 ± 0.093
TCAACGAA	-0.102 ± 0.044
ACTTTCCC	0.00552 ± 0.00085
CTTGTTTA	-0.0366 ± 0.073
AACGCGGT	0.0374 ± 0.08
CAATCTTA	0.00699 ± 0.1
GTATGCCA	-0.0108 ± 0.032
CCGTGATC	0.0258 ± 0.017
ACCTTGCA	0.0593 ± 0.027
ACCAGCGG	0.106 ± 0.042
CAGTCTCG	-0.0851 ± 0.016
ATACAGGG	-0.305 ± 0.028
CTCTACTA	0.0689 ± 0.027
ATACGCGA	0.0724 ± 0.001
AATACGAT	-0.0916 ± 0.037

Sequence	PBM E-score of 8-mer
CCGATGCA	-0.171 ± 0.039
GTTGGCGA	0.248 ± 0.026
CCGGATCA	0.0169 ± 0.078
CCTGTGCC	-0.0204 ± 0.033
GATAGCGA	0.0854 ± 0.036
ATACCGCA	0.0124 ± 0.0047
CTGGTCCA	-0.23 ± 0.039
CCAGCTAG	-0.145 ± 0.052
AGAAGAAG	-0.307 ± 0.05
CTCAGGCA	-0.161 ± 0.016
ATACAGAG	-0.0843 ± 0.021
GCCGCAAC	-0.0496 ± 0.04
ATCAACGC	0.159 ± 0.049
GGTGCCCA	-0.139 ± 0.069
AGTACGTG	0.168 ± 0.028
AAAATCCC	-0.174 ± 0.051
GCTGACAA	0.2795 ± 0.00061
CTTGCAAC	0.163 ± 0.024
AAGCCTGA	-0.0788 ± 0.067
GTACTAGA	-0.104 ± 0.038
ACTTACAG	0.157 ± 0.035
CGCGGTCA	-0.0665 ± 0.042
ACATCGGG	-0.0207 ± 0.058
GAACCTAC	-0.179 ± 0.00047
ACTTAGTA	-0.0358 ± 0.067

Sequence	PBM E-score of 8-mer
ACTCCGTC	-0.101 ± 0.032
GCCCGAAC	-0.26 ± 0.057
CTCTCGGC	0.0669 ± 0.054
AAGTGGGA	0.223 ± 0.0075
AGCTAGCC	-0.147 ± 0.0053
CCTCAACC	-0.15 ± 0.039
GGAAGGAA	-0.287 ± 0.02
AGTCCCTC	-0.059 ± 0.06
AAGGTATG	0.0327 ± 0.0067
ATTCGAGA	-0.0312 ± 0.0064
ACTTGTGA	0.411 ± 0.0095
ACCCACCC	0.132 ± 0.053
GGTAGTAC	-0.34 ± 0.034
CTCCCGCA	-0.203 ± 0.091
GACATCAA	-0.131 ± 0.0056
AACACAAG	0.096 ± 0.016
AGAAAGCA	0.0161 ± 0.03
TGAAAACA	0.123 ± 0.074
ATCTATAC	-0.169 ± 0.026
CCACTCCC	-0.0399 ± 0.027
CGGCTTGC	-0.0848 ± 0.039
AACACAGC	0.0601 ± 0.048
GGTTGGGA	-0.312 ± 0.02
CAGGCGGC	-0.00931 ± 0.083
CATATCGA	-0.161 ± 0.01

Sequence	PBM E-score of 8-mer
CTCAACAC	0.321 ± 0.029
ACACTTAT	0.387 ± 0.0076
ACCGTACT	-0.134 ± 0.067
AATCCTCT	-0.1114 ± 0.00041
CACTTCAG	0.255 ± 0.025
ACCGTTGA	-0.184 ± 0.0077
CTGACCCC	-0.231 ± 0.035
CACTACGC	0.157 ± 0.0054
ATCCAGGA	-0.107 ± 0.011
GAGCAAAA	-0.0487 ± 0.12
CAACTGCG	0.0774 ± 0.046
CTCCCTCC	0.0764 ± 0.04
TGACTACA	-0.17 ± 0.012
AACCATAC	-0.179 ± 0.016
ACATTCGG	-0.221 ± 0.051
GAACAGCC	0.046 ± 0.004
CAGGTAGG	0.0824 ± 0.00085
CACTTGGA	0.234 ± 0.018
AGAGTCAC	-0.00213 ± 0.085
ACTAGTAA	-0.0993 ± 0.032
AGGCCCTA	-0.271 ± 0.083
AGATACTA	-0.187 ± 0.036
GACTGAAA	0.0901 ± 0.099
AGCCATCA	-0.169 ± 0.038
CGAAAACC	-0.203 ± 0.072

Sequence	PBM E-score of 8-mer
AATATTAT	-0.12 ± 0.075
CGTTAACC	0.0384 ± 0.0052
TCTAGGAA	-0.236 ± 0.084
GAGAAAGA	-0.0831 ± 0.13
GGTTGGCA	0.184 ± 0.01
CTAAGTCA	0.0515 ± 0.068
CATTCGTC	-0.0104 ± 0.058
AATTCGCC	0.115 ± 0.027
ATAGCTGC	0.00428 ± 0.015
GCGGGCAA	-0.186 ± 0.051
CCCAACTA	-0.12 ± 0.01
CCCGAGAG	-0.113 ± 0.021
CTACGTGA	0.0284 ± 0.073
ACTACGTA	-0.156 ± 0.012
ACACCATA	0.284 ± 0.033
CCCATCTA	-0.177 ± 0.038
ATGATCCA	-0.0567 ± 0.047
GCGTTTGA	-0.115 ± 0.061
AATATTGT	0.123 ± 0.094
AGCATATC	0.0194 ± 0.02
TAACCATA	-0.145 ± 0.046
AATCTAAC	-0.0186 ± 0.011
CTGCCATA	0.0983 ± 0.012
AGCGCTAC	0.152 ± 0.012
AAAGAGGG	-0.00301 ± 0.049

Sequence	PBM E-score of 8-mer
GTAGATGA	-0.132 ± 0.011
TGGATCCA	-0.12 ± 0.022
GGCGAAAC	0.0341 ± 0.0066
AATCTTAG	-0.0317 ± 0.098
AGTGTTAT	0.397 ± 0.016
GATCCCAC	0.0899 ± 0.054
ATTTGCGC	0.132 ± 0.035
AGTTTAAT	-0.0349 ± 0.05
AATCTAAG	-0.214 ± 0.028
TCTTGGCA	0.0497 ± 0.1
AAACCGCT	-0.0513 ± 0.0093
CCTGAGCC	-0.117 ± 0.016
ACATGGTC	-0.161 ± 0.036
CCAACATC	-0.0505 ± 0.093
ACACGTCT	0.355 ± 0.021
AAACGAGC	-0.229 ± 0.005
CTACACCA	0.14 ± 0.0059
ATTCACCA	0.0566 ± 0.052
CTTGTACA	-0.11 ± 0.0094
CGTTCTGC	-0.109 ± 0.016
ACGTGTGG	0.362 ± 0.017
CTCGGCAC	0.2625 ± 0.00037
ACCAAGCC	-0.217 ± 0.008
AGTTGTGG	0.122 ± 0.039
AAGGCTAC	-0.14 ± 0.014

Sequence	PBM E-score of 8-mer
CCCAGAAA	-0.167 ± 0.029
TAGCCGGA	-0.158 ± 0.012
GGGCAAAC	-0.202 ± 0.096
AACGACAG	-0.0178 ± 0.014
GACGCCAA	0.213 ± 0.01
GAAGAGTA	-0.112 ± 0.019
CCAAGCTA	-0.114 ± 0.043
AAATAGAG	-0.0742 ± 0.036
CGGGAACA	0.0181 ± 0.014
CCGATTTA	-0.144 ± 0.052
ACCTAAGA	-0.0522 ± 0.064
AGGAATAA	-0.235 ± 0.0072
ACAAATCT	0.0395 ± 0.0062
ATACCATG	-0.0778 ± 0.03
ACCCTGCC	0.0656 ± 0.029
GGCTCGCA	0.136 ± 0.053
GCACAATA	-0.0261 ± 0.048
ATTGGAAG	-0.316 ± 0.051
GATGCGAA	0.186 ± 0.038
ATGTATCC	-0.237 ± 0.033
TGTCGAAA	0.226 ± 0.043
CGACTTAA	0.106 ± 0.017
